# Results from the supplement of paper PMC8728848.
# This is one part of the list.
# B1: ZG16p (Homo sapiens), O60844 (protein)
# chain: ARSSSYSGEYGGGGGKRFSHSGNQLDGPITALRVRVNTYYIVGLQVRYGKVWSDYVGGRNGDLEEIFLHPGESVIQVSGKYKWFLKKLLFVTDKGRYLSFGKDSGTSFNAVPLHPNTVLRFISGRSGSLIDAIGLHWDVYPSSCSRC
# Experiments:
# Assay in all cases: glycan array binding signal (z-score within array); higher = stronger binding
# Settings in all cases: glycan notation: IUPAC condensed, linker removed; mutation: Y104F
# [1] = biological target: Gal(b1-4)GlcNAc(b1-2)Man(a1-3)[Gal(b1-4)GlcNAc(b1-2)Man(a1-6)]Man(b1-4)GlcNAc(b1-4)GlcNAc
# Procedure, shortened: (§1)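 Glycan array data came from 3228 arrays in the Consortium for Functional Glycomics database, and only arrays with an available protein sequence were kept. Glycan names were put into IUPAC-condensed notation, and columns mapping to the same glycan were averaged. The binding signal is a within-array Z-score, averaged across arrays of one protein sequence run at different concentrations or buffers and across linkers. A negative Z-score can be read as non-binding.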
# [2] = biological target: Gal(b1-4)GlcNAc(b1-2)Man(a1-3)[Gal(b1-4)GlcNAc(b1-2)Man(a1-6)]Man(b1-4)GlcNAc(b1-4)[Fuc(a1-6)]GlcNAc
# Procedure, shortened: as §1
# [3] = biological target: Gal(b1-4)GlcNAc(b1-2)Man(a1-3)[Gal(b1-4)GlcNAc(b1-2)Man(a1-6)][GlcNAc(b1-4)]Man(b1-4)GlcNAc(b1-4)[Fuc(a1-6)]GlcNAc
# Procedure, shortened: as §1
# [4] = biological target: Gal(b1-4)GlcNAc(b1-2)Man(a1-3)[Man(a1-6)]Man(b1-4)GlcNAc(b1-4)GlcNAc
# Procedure, shortened: as §1
# [5] = biological target: Gal(b1-4)GlcNAc(b1-2)Man(a1-6)[GlcNAc(b1-2)Man(a1-3)]Man(b1-4)GlcNAc(b1-4)[Fuc(a1-6)]GlcNAc
# Procedure, shortened: as §1
# [6] = biological target: Gal(b1-4)GlcNAc(b1-2)Man(a1-6)[Man(a1-3)]Man(b1-4)GlcNAc(b1-4)GlcNAc
# Procedure, shortened: as §1
# [7] = biological target: Gal(b1-4)GlcNAc(b1-2)Man(a1-6)[Man(a1-3)]Man(b1-4)GlcNAc(b1-4)[Fuc(a1-6)]GlcNAc
# Procedure, shortened: as §1
# [8] = biological target: Gal(b1-4)GlcNAc(b1-2)[Gal(b1-4)GlcNAc(b1-4)]Man(a1-3)[Fuc(a1-3)[Gal(b1-4)]GlcNAc(b1-2)Man(a1-6)]Man(b1-4)GlcNAc(b1-4)GlcNAc
# Procedure, shortened: as §1
# [9] = biological target: Gal(b1-4)GlcNAc(b1-2)[Gal(b1-4)GlcNAc(b1-4)]Man(a1-3)[Gal(b1-4)GlcNAc(b1-2)[Gal(b1-4)GlcNAc(b1-6)]Man(a1-6)]Man(b1-4)GlcNAc(b1-4)GlcNAc
# Procedure, shortened: as §1
# [10] = biological target: Glc(a1-2)Glc(a1-3)Glc(a1-3)Man(a1-2)Man(a1-2)Man(a1-3)[Man(a1-2)Man(a1-3)[Man(a1-2)Man(a1-6)]Man(a1-6)]Man(b1-4)GlcNAc
# Procedure, shortened: as §1
# [11] = biological target: Glc(a1-2)Glc(a1-3)Glc(a1-3)Man(a1-2)Man(a1-2)Man(a1-3)[Man(a1-3)[Man(a1-6)]Man(a1-6)]Man(b1-4)GlcNAc
# Procedure, shortened: as §1
# [12] = biological target: Glc(a1-3)Glc(a1-3)Man(a1-2)Man(a1-2)Man(a1-3)[Man(a1-2)Man(a1-3)[Man(a1-2)Man(a1-6)]Man(a1-6)]Man(b1-4)GlcNAc(b1-4)GlcNAc
# Procedure, shortened: as §1
# [13] = biological target: Glc(a1-3)Glc(a1-3)Man(a1-2)Man(a1-2)Man(a1-3)[Man(a1-3)[Man(a1-6)]Man(a1-6)]Man(b1-4)GlcNAc
# Procedure, shortened: as §1
# [14] = biological target: Glc(a1-3)Man(a1-2)Man(a1-2)Man(a1-3)[Man(a1-2)Man(a1-3)[Man(a1-2)Man(a1-6)]Man(a1-6)]Man(b1-4)GlcNAc(b1-4)GlcNAc
# Procedure, shortened: as §1
# [15] = biological target: Glc(a1-6)Glc(a1-6)Glc(a1-6)Glc(a1-6)Glc(a1-6)Glc
# Procedure, shortened: as §1
# [16] = biological target: Glc(b1-3)Glc(b1-3)Glc(b1-3)Glc(b1-3)Glc(b1-3)Glc
# Procedure, shortened: as §1
# [17] = biological target: Glc(b1-6)Glc(b1-6)Glc(b1-6)Glc(b1-6)Glc(b1-6)Glc
# Procedure, shortened: as §1
# [18] = biological target: GlcA(b1-3)GlcNAc(b1-4)GlcA(b1-3)GlcNAc(b1-4)GlcA(b1-3)GlcNAc(b1-4)GlcA(b1-3)GlcNAc(b1-4)GlcA(b1-3)GlcNAc(b1-4)GlcA(b1-3)GlcNAc(b1-4)GlcA(b1-3)GlcNAc(b1-4)GlcA(b1-3)GlcNAc
# Procedure, shortened: as §1
# [19] = biological target: GlcNAc(b1-2)Man(a1-3)[GlcNAc(b1-2)Man(a1-6)]Man(b1-4)GlcNAc(b1-4)GlcNAc
# Procedure, shortened: as §1
# [20] = biological target: GlcNAc(b1-2)Man(a1-3)[GlcNAc(b1-2)Man(a1-6)]Man(b1-4)GlcNAc(b1-4)[Fuc(a1-6)]GlcNAc
# Procedure, shortened: as §1
# [21] = biological target: GlcNAc(b1-2)Man(a1-3)[GlcNAc(b1-2)Man(a1-6)][GlcNAc(b1-4)]Man(b1-4)GlcNAc(b1-4)GlcNAc
# Procedure, shortened: as §1
# [22] = biological target: GlcNAc(b1-2)Man(a1-3)[Man(a1-3)[Man(a1-6)]Man(a1-6)][GlcNAc(b1-4)]Man(b1-4)GlcNAc(b1-4)GlcNAc
# Procedure, shortened: as §1
# [23] = biological target: GlcNAc(b1-2)[GlcNAc(b1-4)]Man(a1-3)[GlcNAc(b1-2)Man(a1-6)][GlcNAc(b1-4)]Man(b1-4)GlcNAc(b1-4)GlcNAc
# Procedure, shortened: as §1
# [24] = biological target: GlcNAc(b1-2)[GlcNAc(b1-4)]Man(a1-3)[GlcNAc(b1-2)[GlcNAc(b1-4)][GlcNAc(b1-6)]Man(a1-6)][GlcNAc(b1-4)]Man(b1-4)GlcNAc(b1-4)GlcNAc
# Procedure, shortened: as §1
# [25] = biological target: GlcNAc(b1-2)[GlcNAc(b1-4)]Man(a1-3)[GlcNAc(b1-2)[GlcNAc(b1-6)]Man(a1-6)]Man(b1-4)GlcNAc(b1-4)GlcNAc
# Procedure, shortened: as §1
binder,measurement,setting,value
B1,glycan array binding signal (z-score),[1],-0.485
same,glycan array binding signal (z-score),[2],-0.485
same,glycan array binding signal (z-score),[3],-0.485
same,glycan array binding signal (z-score),[4],-0.424
same,glycan array binding signal (z-score),[5],-0.485
same,glycan array binding signal (z-score),[6],-0.485
same,glycan array binding signal (z-score),[7],-0.369
same,glycan array binding signal (z-score),[8],-0.485
same,glycan array binding signal (z-score),[9],-0.415
same,glycan array binding signal (z-score),[10],-0.392
same,glycan array binding signal (z-score),[11],0.026
same,glycan array binding signal (z-score),[12],-0.135
same,glycan array binding signal (z-score),[13],-0.101
same,glycan array binding signal (z-score),[14],-0.485
same,glycan array binding signal (z-score),[15],-0.289
same,glycan array binding signal (z-score),[16],2.84
same,glycan array binding signal (z-score),[17],-0.073
same,glycan array binding signal (z-score),[18],-0.485
same,glycan array binding signal (z-score),[19],-0.485
same,glycan array binding signal (z-score),[20],-0.485
same,glycan array binding signal (z-score),[21],-0.417
same,glycan array binding signal (z-score),[22],-0.485
same,glycan array binding signal (z-score),[23],-0.485
same,glycan array binding signal (z-score),[24],-0.485
same,glycan array binding signal (z-score),[25],-0.485
